This is an account of results in the supplement of paper PMC9446081.

Out of some 39,000 compounds screened, about 220 (0.56%) showed activity. Some of the results follow.
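Further: static incubation at 37 °C against the wild-type strain, values averaged over two biological replicates.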

The subject of the assay is Escherichia coli K-12 BW25113. Briefly: relative growth (OD600 normalised to plate interquartile mean) (fraction); higher = less growth inhibition, active = 0.2 or less. The following applies: 50 µM; LB; incubation time: overnight (16-24 h).
`NCCCCNCCCN`: the relative growth was inactive: 0.98.
Turning to `Cc1noc(C)c1S(=O)(=O)Nc1ccc2c(c1)C(=O)N([C@@H](C)CO)C[C@H](C)[C@H](CN(C)Cc1ccncc1)O2`, the relative growth is inactive: 0.982.
For the compound `C[C@H](CO)N1C[C@H](C)[C@H](CN(C)CC2CCCCC2)Oc2c(NC(=O)c3nc4ccccc4s3)cccc2C1=O`, the relative growth was inactive: 1.01.
`CC(C)N(CCOc1c(Br)cc(/C=C/C(=O)NCCCOc2c(Br)cc(CCN(C)C)cc2Br)cc1Br)C(C)C`: the relative growth was inactive: 0.882.
Consider `Cc1noc(C)c1NC(=O)Nc1cccc2c1O[C@H](CN(C)S(C)(=O)=O)[C@@H](C)CN([C@H](C)CO)C2=O`, for which the relative growth is inactive: 0.981.
Take `C[C@@H]1CN([C@H](C)CO)C(=O)c2cc(NC(=O)Nc3ccc(F)cc3)ccc2O[C@@H](C)CCCCO[C@@H]1CN(C)Cc1ccc(C(=O)O)cc1`: the relative growth was inactive: 0.995.
Regarding `C[C@@H]1CN([C@H](C)CO)C(=O)c2cc(NC(=O)C3CCCCC3)ccc2O[C@@H]1CN(C)C(=O)Nc1ccc(C(F)(F)F)cc1`, the relative growth was inactive: 0.989.
Consider `C[C@H]1CN([C@@H](C)CO)C(=O)CCCn2cc(nn2)CO[C@@H]1CN(C)C(=O)CCCN(C)C`, for which the relative growth is inactive: 0.981.
With `COc1ccc(S(=O)(=O)N2C[C@H](O)COC[C@H]3O[C@@H](CC(=O)NCCCN(C)C)CC[C@@H]32)cc1`, the relative growth is inactive: 0.969.
With `C[C@@H]1CCCCO[C@H](CN(C)Cc2ccc(C(=O)O)cc2)[C@H](C)CN([C@@H](C)CO)C(=O)c2cc(NS(=O)(=O)c3ccc(Cl)cc3)ccc2O1`, the relative growth was inactive: 1.01.
Turning to `C[C@@H]1CN([C@H](C)CO)C(=O)Cc2cc(NC(=O)Cn3cnnn3)ccc2O[C@@H]1CN(C)S(=O)(=O)c1ccc(F)cc1`, the relative growth was inactive: 0.981.
In the case of `C[C@@H]1CN([C@@H](C)CO)C(=O)Cc2cc(NS(=O)(=O)c3cn(C)cn3)ccc2O[C@@H]1CN(C)S(=O)(=O)c1ccc(F)cc1`, the relative growth is inactive: 0.99.
`C[C@H](NC(=O)C[C@H]1CC[C@@H](NC(=O)CN2CCOCC2)[C@@H](CO)O1)c1ccccc1`: the relative growth was inactive: 1.02.
For the compound `C[C@H]1CN([C@@H](C)CO)C(=O)c2cc(NS(C)(=O)=O)ccc2O[C@@H]1CN(C)C(=O)Nc1ccccc1`, the relative growth is inactive: 1.02.
`C[C@H](CO)N1C[C@H](C)[C@@H](CN(C)S(=O)(=O)c2cn(C)cn2)Oc2c(NC(=O)c3nc4ccccc4s3)cccc2C1=O`: the relative growth was inactive: 1.
For `COc1ccc(CN(C)C[C@H]2Oc3ccc(NC(=O)Nc4ccc(C(F)(F)F)cc4)cc3C(=O)N([C@H](C)CO)C[C@H]2C)cc1`, the relative growth was inactive: 0.987.
For `COCC#Cc1cnc2c(c1)C(=O)N([C@@H](C)CO)C[C@@H](C)[C@@H](CN(C)S(=O)(=O)c1cn(C)cn1)O2` the value was inactive: 1.01; for `C[C@@H]1CCCCO[C@H](CN(C)Cc2ccccc2)[C@@H](C)CN([C@@H](C)CO)C(=O)c2cc(NS(=O)(=O)c3ccccc3)ccc2O1`, inactive: 1.01.
Take `CN1C(=O)c2cc(NC(=O)C3CCOCC3)ccc2OC[C@H]2O[C@H](CC(=O)NCCc3ccncc3)CC[C@H]21`: the relative growth was inactive: 1.01.
The result for `Cc1ccc(NC(=O)C[C@@H](N)C(=O)O)cc1` reads inactive: 1.01.
For `C=CCNC(=O)[C@@H]1[C@H]2C(=O)O[C@H](c3ccccc3)[C@H](c3ccccc3)N2[C@H](c2ccc(OCCO)cc2)[C@@]12C(=O)Nc1ccc(C#CC3(O)CCCCCC3)cc12`, the relative growth is inactive: 1.07.
Consider `C[C@@H]1CN([C@H](C)CO)C(=O)c2cc(NS(=O)(=O)c3ccc(Cl)cc3)ccc2O[C@@H]1CN(C)Cc1ccc(-c2ccccc2)cc1`, for which the relative growth is inactive: 1.03.
`C[C@@H]1CCCCO[C@@H](CN(C)C(=O)c2ccccc2)[C@@H](C)CN([C@@H](C)CO)C(=O)c2cc(NC(=O)Nc3ccc(F)cc3)ccc2O1`: the relative growth was inactive: 1.03.
Take `CCCN(C)C[C@@H]1OCCCC[C@H](C)Oc2ccc(NC(=O)CCC(F)(F)F)cc2C(=O)N([C@@H](C)CO)C[C@@H]1C`: the relative growth was inactive: 1.
The result for `C[C@H]1CN([C@@H](C)CO)C(=O)Cc2cc(NS(=O)(=O)c3cn(C)cn3)ccc2O[C@H]1CN(C)CC1CCCCC1` reads inactive: 1.02; that for `COc1cccc(S(=O)(=O)N(C)C[C@@H]2OCc3cnnn3CCCC(=O)N([C@H](C)CO)C[C@@H]2C)c1`, inactive: 0.999; that for `Cc1ccc(Cn2nnc3c(=O)n(CC(N)=O)cnc32)cc1`, inactive: 0.987.
Turning to `COc1ccc(-c2cc(=O)c3c(O)cc(O[C@@H]4O[C@H](CO)[C@@H](O)[C@H](O)[C@H]4O[C@@H]4O[C@H](COC(C)=O)[C@@H](O)[C@@H](O)[C@H]4O)c(O)c3o2)cc1`, the relative growth was inactive: 0.993.
For `COc1cc(CO)c(CC(=O)NN)cc1OC`, the relative growth is inactive: 0.999.
In the case of `CC(C)C[C@H](NC(=O)[C@H](CCCCN)NC(=O)CNC(=O)[C@H](CC(C)C)NC(=O)[C@@H](NC(=O)[C@@H]1CSSC[C@H](N)C(=O)N[C@@H](CO)C(=O)N[C@@H](CC(N)=O)C(=O)N[C@@H](CC(C)C)C(=O)N[C@@H](CO)C(=O)N[C@@H]([C@@H](C)O)C(=O)N1)C(C)C)C(=O)N[C@@H](CO)C(=O)N[C@@H](CCC(N)=O)C(=O)N[C@@H](CCC(=O)O)C(=O)N[C@@H](CC(C)C)C(=O)N[C@@H](Cc1c[nH]cn1)C(=O)N[C@@H](CCCCN)C(=O)N[C@@H](CC(C)C)C(=O)N[C@@H](CCC(N)=O)C(=O)N[C@H](C(=O)N[C@@H](Cc1ccc(O)cc1)C(=O)N1CCC[C@H]1C(=O)N[C@@H](CCCNC(=N)N)C(=O)N[C@H](C(=O)N[C@@H](CC(=O)O)C(=O)N[C@H](C(=O)NCC(=O)N[C@@H](C)C(=O)NCC(=O)N[C@H](C(=O)N1CCC[C@H]1C(N)=O)[C@@H](C)O)C(C)C)[C@@H](C)O)[C@@H](C)O`, the relative growth was inactive: 0.916.
As to `c1ccc(CNc2nn[nH]n2)cc1`, the relative growth is inactive: 0.97.
As for `C[C@@H]1CN([C@@H](C)CO)C(=O)c2cc(NS(=O)(=O)c3ccccc3)ccc2O[C@@H]1CN(C)Cc1ccncc1`, the relative growth is inactive: 0.998.
In the case of `COc1ccc(OC)c(S(=O)(=O)N2[C@@H]3CC[C@@H](C3)[C@H]2c2nc3cccc(OCc4ccc(F)cc4)c3[nH]2)c1`, the relative growth is inactive: 1.03.
For the compound `C[C@H]1CCCCO[C@H](CN(C)C(=O)Nc2ccc(C(F)(F)F)cc2)[C@@H](C)CN([C@@H](C)CO)C(=O)c2cc(NC(=O)C3CCCCC3)ccc2O1`, the relative growth was inactive: 1.02.
For the compound `C[C@@H]1CN([C@@H](C)CO)S(=O)(=O)c2ccc(C#Cc3ccncc3)cc2O[C@@H]1CN(C)C(=O)c1ccncc1`, the relative growth is inactive: 0.999.
Regarding `C[C@@H]1CN([C@H](C)CO)C(=O)c2cc(C#CC3CCCC3)cnc2O[C@@H]1CN(C)C(=O)Cc1ccccn1`, the relative growth is inactive: 1.03.
For `C[C@@H]1CN([C@H](C)CO)S(=O)(=O)c2ccc(Br)cc2O[C@@H]1CN(C)C(=O)C1CCCCC1`, the relative growth is inactive: 1.03.
For the compound `C[C@@H]1CN([C@H](C)CO)C(=O)c2cc(NC(=O)Nc3ccccc3)ccc2O[C@@H](C)CCCCO[C@H]1CN(C)S(=O)(=O)c1ccccc1`, the relative growth is inactive: 0.93.
Turning to `Cc1noc(C)c1NC(=O)Nc1ccc2c(c1)CC(=O)N([C@@H](C)CO)C[C@@H](C)[C@@H](CN(C)S(=O)(=O)c1cccs1)O2`, the relative growth was inactive: 1.01.
Turning to `Cc1ccc(S(=O)(=O)N(C)C[C@H]2Oc3ccc(NC(=O)Cn4cnnn4)cc3CC(=O)N([C@@H](C)CO)C[C@H]2C)cc1`, the relative growth was inactive: 0.991.
As to `C[C@@H]1CN([C@H](C)CO)C(=O)CCCn2nncc2CO[C@H]1CN(C)C(=O)Nc1ccccc1C(F)(F)F`, the relative growth is inactive: 0.988.
`Cc1ccccc1S(=O)(=O)N1C[C@H](O)COC[C@H]2O[C@H](CC(=O)NCc3ccccc3Cl)CC[C@@H]21`: the relative growth was inactive: 1.01.
`CCCc1ncc(C[n+]2ccccc2C)c(N)n1.[Cl-]`: the relative growth was inactive: 0.917.
For the compound `COCC#Cc1ccc2c(c1)O[C@@H](CN(C)C(=O)Nc1ccccc1F)[C@H](C)CN([C@@H](C)CO)S2(=O)=O`, the relative growth is inactive: 0.992.
For the compound `COc1ccc(NC(=O)N(C)C[C@H]2Oc3ccc(NS(=O)(=O)c4c(C)noc4C)cc3C(=O)N([C@@H](C)CO)C[C@@H]2C)cc1`, the relative growth was inactive: 1.01.
For `CCNC(=O)C[C@@H]1CC[C@H]2[C@@H](COC[C@@H](O)CN2S(=O)(=O)c2ccc(Oc3ccccc3)cc2)O1` the value was inactive: 1.01; for `O=C(COc1ccc(S(=O)(=O)N2CCOCC2)cc1)N1CCOCC1`, inactive: 1.04.
As to `N[C@@H](Cc1ccc(Cl)cc1)C(=O)O`, the relative growth is inactive: 1.
Consider `COc1ccc(NC(=O)Nc2cccc3c2O[C@@H](CN(C)Cc2ccc(C(F)(F)F)cc2)[C@@H](C)CN([C@@H](C)CO)C3=O)cc1`, for which the relative growth is inactive: 0.986.
For the compound `CC1CC2C3CCC4=CC(=O)C=CC4(C)C3(F)C(O)CC2(C)C1(O)C(=O)COP(=O)([O-])[O-].[Na+].[Na+]` (stereo not given), the relative growth is inactive: 1.01.
For `C[C@@H]1CN([C@@H](C)CO)C(=O)Cc2cc(NC(=O)CCN3CCOCC3)ccc2O[C@@H]1CN(C)Cc1ccncc1` the value was inactive: 1.01.
The result for `COc1ccc(S(=O)(=O)Nc2ccc3c(c2)C(=O)N([C@H](C)CO)C[C@@H](C)[C@@H](CN(C)S(=O)(=O)c2c(C)noc2C)O3)cc1` reads inactive: 0.996.
Turning to `C[C@H](CO)N1C[C@H](C)[C@H](CN(C)C(=O)Nc2ccc(F)cc2)Oc2ccc(NS(C)(=O)=O)cc2CC1=O`, the relative growth is inactive: 0.967.
As for `C[C@@H]1CCCCO[C@H](CN(C)S(=O)(=O)c2cccs2)[C@H](C)CN([C@@H](C)CO)C(=O)c2cc(NC(=O)Nc3ccc4c(c3)OCO4)ccc2O1`, the relative growth was inactive: 1.02.
On to `C[C@@H]1CCCCO[C@H](CN(C)Cc2ccncc2)[C@@H](C)CN([C@@H](C)CO)C(=O)c2cc(NC(=O)Nc3ccc4c(c3)OCO4)ccc2O1`, for which the relative growth was inactive: 1.01.
